Measured values as given in the supplement of paper PMC3334620.
Over roughly 33,000 sequences, “E-score (-0.5 to 0.5)” has its median near -0.032; the highest 2% begin near 0.36. The list shows a part of the results.

Molecular target: T1, Sko1 (UniProt Q02100)
T1 sequence: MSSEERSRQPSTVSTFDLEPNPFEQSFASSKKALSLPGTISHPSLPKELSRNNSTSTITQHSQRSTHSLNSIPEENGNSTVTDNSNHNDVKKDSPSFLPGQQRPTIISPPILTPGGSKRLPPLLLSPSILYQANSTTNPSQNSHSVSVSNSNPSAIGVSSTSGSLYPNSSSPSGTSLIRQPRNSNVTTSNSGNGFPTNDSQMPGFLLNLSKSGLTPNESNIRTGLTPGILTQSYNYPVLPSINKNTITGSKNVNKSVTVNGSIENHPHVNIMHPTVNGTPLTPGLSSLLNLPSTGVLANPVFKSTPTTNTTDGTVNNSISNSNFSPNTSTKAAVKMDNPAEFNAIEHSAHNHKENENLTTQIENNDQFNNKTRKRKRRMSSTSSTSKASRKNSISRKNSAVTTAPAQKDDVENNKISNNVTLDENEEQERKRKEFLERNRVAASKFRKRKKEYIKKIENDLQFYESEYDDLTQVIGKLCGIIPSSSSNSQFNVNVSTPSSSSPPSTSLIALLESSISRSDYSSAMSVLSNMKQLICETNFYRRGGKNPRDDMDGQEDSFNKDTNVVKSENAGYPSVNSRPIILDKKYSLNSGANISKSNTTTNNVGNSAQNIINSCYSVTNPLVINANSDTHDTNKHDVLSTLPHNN
Test: PBM E-score (8-mer binding enrichment) (E-score (-0.5 to 0.5)); higher = stronger / more preferred TF binding; most listed sequences are background and not binding sites
Settings: protein concentration: 200 nM; construct: GST-full length
Procedure, shortened: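 Each ungapped eight-base word and its reverse complement, pooled, received an E-score from the Universal PBM Analysis Suite. Underlying scans, normalised with masliner, recorded fluorescent anti-GST bound to GST-tagged yeast transcription factors. These were applied at about 100-200 nM to universal all-10-mer Agilent arrays double-stranded by primer extension.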

Row | Sequence | PBM E-score
1 | CACGTAAA | 0.437
2 | AGCTGCAC | -0.181
3 | GACTCCAC | -0.155
4 | ACTACCCT | -0.13
5 | ACCCTTAA | -0.219
6 | CTAAGAAA | 0.108
7 | TCGGGCCA | -0.317
8 | CCAACCAC | 0.0828
9 | AACTCACA | 0.0634
10 | ACTCTTTG | -0.0774
11 | AGCGTTTG | -0.0457
12 | GGGCGGGA | -0.0916
13 | CGGAGTGC | -0.185
14 | ACAGGGGT | -0.325
15 | AGCAGCAA | -0.155
16 | CGAGTACA | -0.00074
17 | AGGATCGC | -0.0051
18 | GCAGGCAC | -0.156
19 | ACGACCGT | -0.195
20 | CCGTCCAA | -0.141
21 | ACCAACAC | 0.141
22 | ATGAACTA | 0.0693
23 | GATGGTGC | -0.291
24 | AGGTGCTA | -0.0841
25 | CCCAGCCA | -0.183

Row | Sequence | PBM E-score
26 | CCTCGGTA | -0.287
27 | ATGTCTAG | 0.113
28 | ATACGTGA | 0.426
29 | ACCTATGC | -0.112
30 | CGCGTTAG | 0.0679
31 | ACGTCTTC | 0.389
32 | ATTACGAA | 0.453
33 | CCCGACAG | -0.134
34 | ACCCCAGC | -0.111
35 | ACGCAAAC | 0.321
36 | TATTTTAA | 0.223
37 | CCCATCAG | -0.278
38 | CGGCATAG | -0.126
39 | CCCGTTAG | -0.302
40 | AGGCCGGC | -0.294
41 | ATATGAAT | 0.173
42 | TCTCAAGA | 0.00152
43 | CCGCGCCC | -0.318
44 | AAGAGTAC | -0.172
45 | GGCCCGGA | -0.3
46 | AATAGAGC | -0.017
47 | CGTATGGC | 0.348
48 | GTCTTGGA | -0.139
49 | CGAGGTCA | 0.00065
50 | GCTCCCGA | -0.204

Row | Sequence | PBM E-score
51 | CAAAATCA | 0.106
52 | ATAGTACA | 0.0153
53 | CGGTGTAG | -0.154
54 | ACTTGCGC | 0.0124
55 | AGGGAAGG | -0.159
56 | TAAATCTA | 0.0922
57 | AGCTGCGC | -0.0733
58 | CCATTCTC | -0.0683
59 | AAGCATCA | 0.0233
60 | ACCACTTC | -0.111
61 | AACGCAAT | 0.38
62 | CTGGATTA | 0.0575
63 | TCGCTGCA | -0.025
64 | TTACACAA | 0.295
65 | CTGTAGAC | 0.0562
66 | CGCGCGCG | 0.00025
67 | ATACTCGA | -0.11
68 | GAGCGCGA | -0.121
69 | CACGGAAG | -0.103
70 | ATGACTTA | 0.208
71 | AACGTAGC | 0.349
72 | GCTGCTCC | -0.234
73 | CGCTGTAC | -0.114
74 | CGCCGTCA | 0.0743
75 | TCCGCTAA | -0.18

Row | Sequence | PBM E-score
76 | ACCCTTCT | -0.075
77 | ACATGGGC | -0.0496
78 | TAGGCAGA | -0.0375
79 | GCTGGGCA | -0.18
80 | AGCGTGAA | -0.156
81 | AGGTCCTC | -0.221
82 | GAGTGATC | -0.131
83 | ATTTACGA | 0.319
84 | ATCTGACC | 0.0857
85 | AAGACCGC | -0.257
86 | ACCAACTA | 0.163
87 | TCCGGAGA | -0.203
88 | CATCATCG | 0.347
89 | CCACCTAG | -0.00493
90 | GAATATAA | 0.131
91 | AGGAGGCC | -0.171
92 | CTCGGGTC | -0.149
93 | CGGTAATA | 0.086
94 | GATACTAC | 0.0561
95 | ATAGCTTC | 0.0386
96 | AGTAACCC | -0.0462
97 | AACTATTG | 0.14
98 | AAGCCATT | -0.0496
99 | TTACGAAA | 0.396
100 | CCCAAAGC | -0.0538

Row | Sequence | PBM E-score
101 | AGTGACAA | 0.0709
102 | CCTCTCCG | -0.301
103 | ACGACTCG | -0.0123
104 | TCACGACA | 0.212
105 | AGTAGGCA | -0.0135
106 | AGATGAGG | -0.118
107 | AGGAGTGC | -0.253
108 | GAAACCTC | -0.105
109 | ACAGAAAC | -0.00681
110 | CAGGTAAC | -0.118
111 | CGTATCTA | 0.245
112 | CCCTCAAC | -0.138
113 | CGATATCG | 0.242
114 | CCATGTAG | -0.0679
115 | ATCTGACA | -0.201
116 | AGCTCTCG | -0.0918
117 | AATGCCCT | -0.205
118 | AAGAAAGA | -0.0503
119 | TGATCGCA | 0.00793
120 | ACGGTCGG | -0.28
121 | CTAGAAAC | 0.0811
122 | GGTGCCGA | -0.233
123 | GCAGATCC | -0.205
124 | CCACATTC | -0.0441
125 | AGGGGGCC | -0.392

Row | Sequence | PBM E-score
126 | CATTAGCA | 0.207
127 | AGGTGACT | 0.0898
128 | CTTTCCGC | -0.0449
129 | TGACCTAA | 0.309
130 | GATAGACA | -0.0594
131 | CCAGTCGG | -0.142
132 | ATCCTGTG | -0.173
133 | AAGTATGG | 0.023
134 | ATTAGTAC | 0.286
135 | ATGGGCGG | -0.0827
136 | AATAATTA | 0.32
137 | CTAAGATC | -0.059
138 | GGTAGGTA | -0.0963
139 | GCGTCCGA | -0.183
140 | AGCGTTTC | -0.0234
141 | CCCAATAG | 0.0683
142 | AGCCTTTG | -0.267
143 | ACAGCCGA | -0.306
144 | AACGGAAT | 0.111
145 | CGAGCACA | -0.00253
146 | CGCGCTAA | 0.164
147 | GAATGTAA | 0.00625
148 | GCCCGGCC | -0.396
149 | ATTCCAAC | 0.0583
150 | AGATTAGG | 0.0796

Row | Sequence | PBM E-score
151 | GCCAACCA | -0.0814
152 | CGTGCGTA | 0.382
153 | AGCCGGAA | -0.222
154 | AAACATTC | 0.0936
155 | GGCGGATA | -0.0218
156 | AAGGTTAA | 0.06
157 | CGACGACC | -0.114
158 | CGCCTTCC | -0.325
159 | ACGTAGCA | 0.412
160 | GACAACTC | 0.0731
161 | CCATGGTC | -0.276
162 | ACCCCCTC | -0.404
163 | ATGCAGAG | -0.276
164 | ATGGCGAA | 0.125
165 | GGCTGAGA | -0.16
166 | CGTCCTCA | -0.123
167 | AAAAACAA | 0.187
168 | GTACCGAA | -0.0524
169 | ACCGTACC | -0.244
170 | GGGATCGA | -0.0773
171 | CGCACCAA | 0.0324
172 | ACGAATTC | 0.187
173 | CAGCCCCC | -0.335
174 | CTGGGAGA | -0.297
175 | AGCTGGGG | -0.241

Row | Sequence | PBM E-score
176 | CCCCCGGC | -0.312
177 | GATCCCGA | -0.298
178 | ATATGGAG | 0.0361
179 | GTAAGGCA | 0.119
180 | AGGTCCCG | -0.25
181 | GTCCATCA | -0.0105
182 | CACGGCTG | -0.226
183 | AGTCAATG | -0.0578
184 | GATCGGGA | -0.0312
185 | CTAAATAG | -0.0565
186 | CCTGTGTC | -0.211
187 | AGGGGAAG | -0.168
188 | CGTAGTAC | 0.372
189 | GCCTCCGA | -0.29
190 | ATCAGCGC | -0.0254
191 | AGACACTG | -0.182
192 | CCGCTCAA | -0.194
193 | CTGCATCA | 0.226
194 | CCTACTTC | -0.0456
195 | AAAGGGGT | -0.26
196 | ATATACAC | 0.276
197 | AACAACGG | -0.14
198 | CCGGTCAA | -0.12
199 | CGGCACCC | -0.32
200 | CATCGCGA | 0.0564

Row | Sequence | PBM E-score
201 | CAAGACTC | -0.047
202 | AGCTCAAA | 0.0839
203 | CGGTCAAA | -0.0179
204 | GGAGGAAC | -0.14
205 | ATAAGGCG | 0.0753
206 | ATCTCAAG | -0.0407
207 | AGGCTTGA | -0.0134
208 | CGACGTGA | 0.344
209 | ATAGTTGC | 0.156
210 | CAGGTGGC | -0.129
211 | CGTAGTCA | 0.3
212 | TACAGAAA | 0.056
213 | CGACCTCC | -0.31
214 | ACTTGAAT | 0.0186
215 | ACCAGCCG | -0.311
216 | GAGGATAC | 0.0269
217 | CCAGTTCA | -0.179
218 | AATCATTA | 0.211
219 | CCTCAGTA | -0.232
